Several values for one entry are separate records, joined by “and”; a condition that tells them apart may be missing. Identical values can stand only once.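 Where inhibition never reached the appropriate level, the endpoint shown equals the highest concentration tested. Otherwise, values were interpolated linearly from a five-concentration, 48-hour dose response in 96-well plates. At the GI50, growth is halved. TGI: total growth inhibition.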

The subject of the test is NCI-H322M lung. The test can be described thus: growth of human tumour cells (NCI), 48 h.
`O=C(OCc1ccccc1)N1N=NC2C1C1CC(OCc3ccccc3)(OCc3ccccc3)C2O1` (centres undefined) registered a TGI of more than 100 µM.

In turn, `O=C1/C(=N\O)C2CCC1C2` (centres undefined) registered a TGI of more than 100 µM.

Consider `C[O+]=c1cccc2ssnc1-2`, for which the TGI is more than 100 µM. `CN(C)C(=O)N(CCCl)N=O` yielded a TGI of more than 100 µM. In the case of `COc1c(Cl)cc(Cl)cc1S(=O)O`, the TGI was more than 100 µM.

`O=C(O)CN(CCN(CC(=O)O)CC(=O)O)CC(=O)O`: the GI50 is more than 100 µM and the TGI was more than 100 µM. `COc1ccc(/C=N/Nc2nc(-c3cc4oc(=O)n(C)c4cc3Cl)cs2)cc1OC` registered a TGI of more than 100 µM. `O=C(O)/C=C/C=C/c1ccc2c(c1)OCO2` had a TGI of more than 100 µM. Same read-out and setting: with `CC(C)(C)OC(=O)NC(Cc1ccc(OCc2ccccc2)cc1)C(=O)NC(COCc1ccccc1)C(=O)Oc1c(Cl)c(Cl)c(Cl)c(Cl)c1Cl` (centres undefined) the figure was 78.5 µM.

Regarding `CC(=O)O[C@H]1CC[C@]2(C)[C@H]3CC=C4[C@@H]5CC(C)(C)CC[C@]5(C(=O)NCCNCCNCCN)CC[C@@]4(C)[C@]3(C)CC[C@H]2C1(C)C`, the GI50 is 1.58 µM and the TGI was 2.94 µM. Turning to `COC1C(O)CC(OC2CC(OC3CC(O[C@@H]4C(=O)c5c(cc6cc(OC7CC(OC8CC(O)C(O)C(C)O8)C(O)C(C)O7)c(C)c(O)c6c5O)CC4[C@H](OC)C(=O)C(C)=O)OC(C)C3O)OC(C)C2O)OC1C` (some centres undefined), the GI50 is 0.0114 µM and the TGI is 0.114 µM. In the case of `Cc1nc(N)nc(N)c1CCCCc1ccccc1`, the TGI was 72.4 µM. `O=C(c1ccccc1)C(c1ccccc1)C1(O)C(=O)Nc2c(Cl)ccc(Cl)c21` (centres undefined) returned a TGI of 70.1 µM. In turn, `O=C1C(c2ccc([N+](=O)[O-])cc2)=[N+]([O-])c2ccc([N+](=O)[O-])cc21` returned a TGI of more than 100 µM. Take `Cc1ccc(S(=O)(=O)n2cc(/C=C/C#N)c(/C=C/C#N)c2)cc1`: the TGI was more than 100 µM. On to `CC(=O)N/N=C1/NN(C(C)=O)C2(S1)C(=O)Nc1ccc(C)cc12` (centres undefined), for which the TGI is more than 100 µM. Compound `Cc1ccc(N=Nc2c(C)nn(-c3ccccc3)c2-c2ccccc2)c(Br)c1` showed a TGI of more than 100 µM. Take `CCOC(=O)C1C(=O)CN2CCc3c([nH]c4ccccc34)C12C(=O)OCC` (centres undefined): the TGI was more than 100 µM. Consider `CCCCN(CCCC)CC(C(=O)Nc1ccccc1)/C(C)=N\NC(=O)c1ccncc1` (centres undefined), for which the TGI was more than 100 µM. `CCSC(=O)N1c2ccc(OC)cc2C=CC1C#N` (centres undefined): the GI50 is 2.6 µM and the TGI is more than 1000 µM. The compound `C(=Nc1ccccc1C1SCCCS1)c1ccccc1` yielded a TGI of more than 100 µM. As to `OC[C@@H]1CC#C/C=C\C#CC[C@@H]1CO`, the TGI was more than 100 µM.

In the case of `Cc1ccc(C(=Nc2ccccc2)N=P(c2ccccc2)(c2ccccc2)c2ccccc2)cc1`, the GI50 is 1.56 µM and the TGI is 6.32 µM.

As for `CCC1(CC)C(=O)N(C(=O)c2ccc(C)cc2)N(C(=O)c2ccc(C)cc2)C1=O`, the TGI is more than 75 µM. On to `CCN(Cc1cccnc1)c1ccc(CO)c(Cl)c1`, for which the GI50 was 28.2 µM and the TGI was more than 100 µM. `O=c1ssc2c1Nc1c(ssc1=O)S2` displayed a TGI of 32.1 µM.

`CCCCCNC(=O)c1cc2cc(CCl)ccc2oc1=O` displayed a TGI of 7.28 µM. Take `Clc1ccc(C2=Nc3ccccc3SC(c3cccs3)C2)cc1` (centres undefined): the TGI was 29 µM.

`NNC(=O)c1n[nH]n(N)c1=S` returned a TGI of more than 100 µM. `CC(C)=CCC/C(C)=C/CCC(C(=O)COCc1ccccc1)P1(=O)OC(C)(C)CN1C(C)(C)C` (centres undefined): the TGI is more than 100 µM.

With `CC[C@]1(O)CC2CN(CCCc3c([nH]c4ccccc34)[C@@](C(=O)OC)(c3cc4c(cc3OC)N(C)C3C45CCN4CC=C[C@](CC)(C45)C(OC(C)=O)[C@@]3(O)C(=O)OC)C2)C1` (some centres undefined), the TGI was more than 10 µM.

`COc1ccc2c(NCCCCCCCCNc3c4ccccc4nc4cc(OC)ccc34)c3ccccc3nc2c1`: the GI50 was 0.0461 µM and the TGI is 0.308 µM. As for `CSc1nc2c(nc(N)n2C2OC(CO)C(O)C(O)C2O)c(=O)n1C` (centres undefined), the TGI was more than 100 µM. With `O=C1/C(=C/c2ccc(O)c(CN3CCCCC3)c2)CCC/C1=C\c1ccc(O)c(CN2CCCCC2)c1`, the TGI amounted to 33.6 µM. In turn, `Clc1ccc(OCCSCCCCCCCCCCSCCOc2ccc(Cl)cc2)cc1` displayed a TGI of more than 100 µM.

For the compound `COc1ccc(-c2cc(=O)oc3ccc(Cl)cc23)cc1F`, the GI50 was 0.868 µM and 2.59 µM; the TGI was more than 100 µM. `CN(C)CCCNC(=O)c1c(-c2cccnc2)cnc2ccccc12` registered a TGI of more than 100 µM. As to `O=C(Cc1csc2nc(-c3ccc(Br)cc3)cn12)N/N=C/c1ccccc1`, the GI50 was 19 µM and the TGI worked out at 94 µM. For the compound `CC12OC(CC(O)C1O)n1c3ccccc3c3c4c(c5c6ccccc6n2c5c31)C(=O)N(CCN1CCCC1)C4=O` (centres undefined), the GI50 was 1.73 µM and the TGI came out at 11 µM. For `NC(=Nc1ccc(S(=O)(=O)Nc2cnc3ccccc3n2)cc1)/N=C(/N)Nc1ccc(Br)cc1`, the TGI is more than 100 µM. On to `OCc1cn(Cc2ccc(Cl)cc2)c2ccccc12`, for which the GI50 was 11.1 µM and the TGI stood at 68.5 µM. In turn, `NC(N)=N/N=C/c1oc(-c2ccc(S(=O)(=O)O)o2)c(-c2ccc(S(=O)(=O)O)o2)c1[N+](=O)[O-]` yielded a TGI of more than 100 µM.

As to `COc1ccc(C(=O)c2c(C(C(=O)c3ccc(OC)cc3)C(=O)c3ccc(OC)cc3)n(C(=O)c3ccc(OC)cc3)c3ccccc23)cc1`, the TGI was more than 100 µM. As to `COc1cc(/C=C2\CCc3ccccc3C2=O)ccc1O`, the TGI was 31 µM.

For `O=c1cnnc2sc(=S)[nH]n12`, the TGI was more than 100 µM.

On to `O=C(c1cc(Cl)ccc1Cl)N1CCN(c2ccc(Cl)c(Cl)c2)CC1`, for which the TGI is more than 100 µM. Still for that read-out and setting: the value for `S=C(S)N1CCOCC1` was more than 100 µM.

In the case of `CCCCCCSC[C@H](OC(C)=O)[C@@H](OC(C)=O)[C@@H](OC(C)=O)[C@@H](COC(C)=O)OC(C)=O`, the TGI is more than 100 µM.

For `CC1(c2ccccc2)N=C(C(N)=O)c2[nH]cnc2N1` (centres undefined), the TGI is more than 100 µM. Turning to `CN1CCC(SC2Cc3cc(Cl)ccc3Sc3ccccc32)CC1` (centres undefined), the TGI was determined as 26.2 µM. Turning to `COc1cc2c(cc1OC)[C@@H]1C(=O)c3cc4c(cc3[C@@H]1N(CCN(C)C)C2=O)OCO4`, the GI50 is 0.43 µM and the TGI is 4.55 µM.

Compound `CCOC(=O)/C(ON)=C(/CC/C(C(=O)OC)=C(\ON)C(=O)OCC)C(=O)OC` came in with a TGI of more than 100 µM. Regarding `O=C1c2ccccc2-c2c1c1ccc([N+](=O)[O-])cc1c(=O)n2CCCN1CCOCC1`, the GI50 is 12 µM and the TGI was more than 84.9 µM. Regarding `C[C@H](NC1=CC(=O)C(N[C@@H](C)[C@H](O)c2ccccc2)=CC1=O)[C@H](O)c1ccccc1`, the TGI is more than 100 µM. For the compound `Cc1cc2c(cc1C)[n+](=O)c(C(=O)C(C)(C)C)c(C(F)(F)F)n2[O-]`, the GI50 is 39.2 µM and the TGI was more than 100 µM. On to `O=[N+]([O-])C(=C1NCCN1)C(Cl)=C(Cl)Cl`, for which the TGI is more than 100 µM.

Consider `Cc1ncc(-c2nnnn2-c2ccccc2)c(C(=O)O)n1`, for which the TGI is more than 100 µM.

`COc1ccc(NC(=O)CC(=O)NN)cc1` gave a TGI of more than 100 µM.

Regarding `[N-]=[N+]=NC1=C(C(=O)c2ccccc2)C(=O)c2cccc3cccc1c23`, the TGI is more than 100 µM. Take `CN(C)CCOc1ccc2[nH]c(C(=O)N3CC(CCl)c4c3cc(NC(=O)OCc3ccc([N+](=O)[O-])cc3)c3ccccc43)cc2c1` (centres undefined): the TGI was determined as 2.34 µM. `S=c1ncc2n[nH]nc2[nH]1` gave a TGI of more than 100 µM.

Compound `Cc1ccc(S(=O)(=O)CC(=O)CC(=O)C(=O)Nc2cccc(C(F)(F)F)c2)cc1` had a TGI of more than 100 µM.

Compound `Cc1ccccc1NC(=O)c1cc2cc(N=Nc3ccccc3C(=O)O)ccc2oc1=O` showed a TGI of 29.4 µM.

In the case of `Nc1nc[n+](Cc2ccccc2)c2ncn(Cc3ccccc3)c12`, the TGI was more than 100 µM. For `O=C1Nc2ccc(Cl)cc2C(=O)N2CCC[C@@H]12`, the TGI is more than 100 µM. `COc1ccc2nc3cc(Cl)ccc3c(Nc3ccc(O)c(CN4CCN(C)CC4)c3)c2c1`: the TGI stood at 3.46 µM. For `CCOC(=O)C1=C(C)N=C2SC=C(c3ccccc3)N2[C@H]1c1cn[nH]c1-c1ccc(Cl)cc1`, the GI50 was 11.8 µM and the TGI was 24.5 µM. For the compound `O=C1CSC(c2cccc([N+](=O)[O-])c2)N1c1ccc(-c2ccc(-n3c(-c4ccccc4)nc4ccccc4c3=O)cc2)cc1` (centres undefined), the TGI is more than 100 µM. As for `COc1cc2c3c(n(CCCn4ccnc4)c(=O)c2cc1OC)-c1cc2c(cc1C3=O)OCO2`, the GI50 was 0.0576 µM and the TGI worked out at 1.03 µM. Turning to `Cc1nc2ccc(Nc3nc(Cl)nc(Nc4ccc(F)cc4)n3)cc2n1Cc1ccccc1`, the GI50 was 7.51 µM and the TGI stood at 20.9 µM. With `N#CC12CC3=C(N=C1NC1=C(CCc4ccccc41)C2)c1ccccc1CC3` (centres undefined), the TGI is more than 73.9 µM. Compound `O=C(Nn1cc(F)c(=O)[nH]c1=O)C12CC3CC(CC(C3)C1)C2` displayed a TGI of more than 100 µM. Still for that read-out and setting: with `CC(=O)Nc1nc2ncc(C=O)nc2c(=O)[nH]1` the figure was more than 100 µM. Take `CCN(Cc1ccccc1F)c1ccc(CO)c(Cl)c1`: the GI50 is 3.85 µM and the TGI is 23.4 µM.

Regarding `CCCCCCCCCCCCCCCCCC(=O)NCC(COP(=O)([O-])OCC[N+](C)(C)C)OC` (centres undefined), the TGI is 26.3 µM.

For the compound `O=C1c2ccccc2C(=O)c2c(Nc3ccc(CCO)cc3)ccc(O)c21`, the GI50 is 14.7 µM and the TGI was more than 100 µM. The compound `CN[C@H](C)[C@@H](OC)c1ccccc1` registered a TGI of more than 100 µM. Same read-out and setting: the value for `COC1CC(C)(NC(C)=O)C2OC(c3ccccc3)OCC2O1` (centres undefined) was more than 100 µM. On the same count and under the same terms, with `COc1ccc(-n2c(N)c(C#N)c(C#N)c2-c2cccc([N+](=O)[O-])c2)cc1` the figure was more than 100 µM; with `COc1ccc(N[C@H]([C@@H](c2ccccc2)S(=O)c2ccc(C)cc2)C(F)(F)F)cc1` (some centres undefined), more than 100 µM. With `CC=C(CBr)CCC(Br)C(C)(C)Cl` (mixture of isomers), the TGI is more than 10 µM. `CCOC(=O)C(Cc1c(C=O)[nH]c2ccccc12)(NC(=O)c1ccccc1)C(=O)OCC`: the TGI was determined as 33.5 µM. On to `CC(C)CC(NC(=O)C(CSc1ccc([N+](=O)[O-])cc1)Cc1ccccc1)C(=O)Nc1ccccc1` (centres undefined), for which the TGI was more than 100 µM. The compound `CC(=O)NNc1nc(C)c(C(=O)NNC(=O)C(=O)Nc2c(C)cccc2C(C)C)s1` displayed a TGI of more than 100 µM. Turning to `CC(C)Oc1c(N(Cc2ccccc2)c2ccccc2C2SCCCS2)c(=O)c1=O`, the TGI is more than 100 µM.
